# Among all 310,000 compounds or so, about 2,200 (0.71%) showed an effect of 50% or more. The effect is printed as a negative number. Some of the results follow.
# Target: human ether-à-go-go-related gene (hERG) potassium channel (human, UniProt Q12809)
# Assay: primary screen, population patch clamp on CHO cells stably expressing hERG
# Chain of human ether-à-go-go-related gene (hERG) potassium channel (Q12809 whole entry, looked up): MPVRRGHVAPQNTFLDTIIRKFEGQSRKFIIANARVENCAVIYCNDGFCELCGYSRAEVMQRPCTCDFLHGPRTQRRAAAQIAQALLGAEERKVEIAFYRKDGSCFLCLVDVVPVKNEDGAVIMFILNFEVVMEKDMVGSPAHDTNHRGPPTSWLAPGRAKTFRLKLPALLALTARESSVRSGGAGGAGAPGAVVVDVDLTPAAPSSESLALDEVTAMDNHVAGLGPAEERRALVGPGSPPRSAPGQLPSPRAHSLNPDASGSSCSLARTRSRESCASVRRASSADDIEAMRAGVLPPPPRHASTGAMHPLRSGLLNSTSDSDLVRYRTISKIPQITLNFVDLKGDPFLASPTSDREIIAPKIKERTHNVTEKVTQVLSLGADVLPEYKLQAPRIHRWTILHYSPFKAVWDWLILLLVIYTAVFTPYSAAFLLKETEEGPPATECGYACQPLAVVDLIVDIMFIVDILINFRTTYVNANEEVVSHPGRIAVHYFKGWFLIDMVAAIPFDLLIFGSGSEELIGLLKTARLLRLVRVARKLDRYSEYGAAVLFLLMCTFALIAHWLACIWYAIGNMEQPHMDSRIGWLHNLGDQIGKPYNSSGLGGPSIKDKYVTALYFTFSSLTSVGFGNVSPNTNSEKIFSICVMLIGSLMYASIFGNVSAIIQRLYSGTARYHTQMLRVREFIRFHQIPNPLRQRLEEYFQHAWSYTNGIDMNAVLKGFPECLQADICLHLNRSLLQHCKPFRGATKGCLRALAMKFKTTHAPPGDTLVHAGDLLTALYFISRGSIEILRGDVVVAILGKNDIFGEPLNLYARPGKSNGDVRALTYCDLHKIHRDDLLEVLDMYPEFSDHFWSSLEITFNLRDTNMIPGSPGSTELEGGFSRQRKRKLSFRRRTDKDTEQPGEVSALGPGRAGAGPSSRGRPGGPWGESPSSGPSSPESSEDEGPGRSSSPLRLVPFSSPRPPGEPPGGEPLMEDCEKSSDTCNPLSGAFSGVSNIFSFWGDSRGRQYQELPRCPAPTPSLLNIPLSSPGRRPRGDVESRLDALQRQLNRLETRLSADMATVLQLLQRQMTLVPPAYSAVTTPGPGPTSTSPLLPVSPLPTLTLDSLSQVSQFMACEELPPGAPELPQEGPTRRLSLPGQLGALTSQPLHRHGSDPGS
row,SMILES,"hERG current change (%, negative = inhibition) at 1uM [%]"
1,CCOc1ccc2[nH]c(C)c(CN3CCOCC3)c(=O)c2c1,11.9
2,CCOC(=O)C1CCCN(C(=O)C2CCN(c3nnc(-n4cccc4)s3)CC2)C1 (stereo not drawn),-8.73
3,COc1ccc(/C=N/NC(=O)c2nc(-c3ccccc3)n(-c3ccccc3)n2)c(O)c1,8.28
4,COc1cc(OC)c(C(=O)NCCCN2CCOCC2)cc1OC,11
5,CCN(CC)CCN1C(=O)C(=O)/C(=C(/O)c2c(C)[nH]c(C(=O)OC)c2C)C1c1cccs1 (stereo not drawn),4.27
6,COc1ccc(NC(=O)C2CCCN(c3cnccn3)C2)c(OC)c1 (stereo not drawn),28.3
7,CCn1c(SCC(=O)Nc2ccc(N(C)C)cc2)nnc1C1CC1,12.9
8,O=C(CCCOc1ccccc1)Nc1ccc(Br)cc1,11.3
9,Br.Cn1c(CS/C(N)=N/N=C/c2ccccc2)c(Br)c(=O)n1-c1ccccc1,5.39
10,Cc1ccc2nc(NC(=O)C3CCN(c4ncnc5sc(C)c(C)c45)CC3)sc2c1,6.69
11,COc1ccc(N(C(=O)C2CCCCC2)C2C=CS(=O)(=O)C2)c(OC)c1 (stereo not drawn),5.57
12,COc1ccc(C(C)(C)C)cc1NC(=O)c1ccc[n+]([O-])c1,21.2
13,CCc1cc(=O)oc2c(C)c(OCC(=O)NCc3ccccn3)ccc12,19.4
14,CCOC(=O)c1c(NC(=S)N2CCN(C)CC2)sc(C)c1-c1ccccc1,-13.1
15,Cc1nnc(C)n1/N=C/c1ccc2c(c1)OCCO2,11.5
16,Cc1cc(C(C)(C)C)cc(S(=O)(=O)NCC(=O)O)c1C,7.74
17,CCN(CC)S(=O)(=O)c1ccc2oc(SCC(=O)Nc3cc(C)on3)nc2c1,3.32
18,COc1cc(/C=C(\C#N)C(=O)Nc2ccc3c(c2)OCCO3)ccc1O,8.1
19,O=C(COC(=O)CC12CC3CC(CC(C3)C1)C2)Nc1ncc(Cl)cc1Cl,-7.39
20,O=C(/C=C/c1ccccc1[N+](=O)[O-])Oc1ccccc1,16.8
21,O=C(Nc1ccc2nc3n(c(=O)c2c1)CCCCC3)C(=O)N1CCN(c2ccccc2)CC1,6.91
22,Cc1ccc(Nc2nc(-c3sc(NC(=O)c4ccco4)nc3C)cs2)cc1,2.13

row,SMILES,"hERG current change (%, negative = inhibition) at 1uM [%]"
1,Cc1ccc(Nc2c([N+](=O)[O-])c(=O)oc3ccccc23)cc1,8.9
2,O=C(COC(=O)c1ccccc1NC(=O)c1ccco1)Nc1ccc2c(c1)OCO2,0.0019
3,CCOc1ccc(NC(=O)N(Cc2ccc(C)cc2)Cc2ccccn2)cc1,-5.08
4,CC(C)=CCC12Oc3cc(O)ccc3C1(O)Oc1cc3c(c(O)c1C2=O)C=CC(C)(C)O3 (stereo not drawn),14.1
5,O=C(O)C1C2C=CC(C2)C1C(=O)Nc1ccc(Cl)c(Cl)c1 (stereo not drawn),7.84
6,CCCCCn1c(CCNC(=O)c2cccs2)nc2ccccc21,-9.6
7,Nc1nc(NCCc2ccccc2)nc(NCCO)c1[N+](=O)[O-],10.5
8,COCCNC(=S)Nc1cc(S(=O)(=O)N2CCOCC2)ccc1N1CCCCC1,6.46
9,Cc1cccc(N(C)S(=O)(=O)c2cccc3nsnc23)c1,10.9
10,CCOC(=O)CSc1nnc(CNc2cccc(Cl)c2)n1-c1ccccc1,8.97
11,CCN(c1ccccc1)S(=O)(=O)c1ccc(Cl)c(NC(=O)COC(=O)c2ccc(Cl)c(N)c2)c1,7.18
12,COc1ccc(N(C(=O)COc2ccccc2)C2C=CS(=O)(=O)C2)c(OC)c1 (stereo not drawn),2.31
13,CCn1c(COc2ccc(C)cc2)nnc1SCc1nc2ccccc2[nH]1,11.6
14,Cc1ccc(S(=O)(=O)NC2CCCCC2)cc1C(=O)N1CCC(C(N)=O)CC1,16
15,O=C(c1ccco1)N1CCN(S(=O)(=O)Cc2ccc(Cl)cc2)CC1,-3.91
16,O=C1NC(=Nc2ccc(O)cc2)S/C1=C/c1ccco1,7.39
17,CCOc1cc2c(cc1OCC)C(c1ccc(C(=O)O)cc1)NCC2.Cl (stereo not drawn),14.1
18,COCCCn1c(-c2ccc(OC)cc2)nc2c1c(=O)[nH]c(=O)n2Cc1ccccc1,5.81
19,CCCCN(CCCC)c1cc(C)nc(-c2ccccc2O)n1,13.3
20,COCCOC(=O)C1=C(C)NC(=O)CC1c1cc2c(cc1Br)OCO2 (stereo not drawn),-9.45
21,COc1cccc(/C=C2\C(=O)N(c3cccc(C)c3)C(=O)c3ccccc32)c1,7.59
22,CCN1C(=NCc2cccc(Cl)c2)N[C@@H](c2cccc(F)c2)C(C(=O)OC)=C1C,-2.93

row,SMILES,"hERG current change (%, negative = inhibition) at 1uM [%]"
1,COc1ccc2[nH]c(C)c(CCNCc3cccnc3)c2c1.O=C(O)C(=O)O,3.08
2,CCOc1ccc(-c2nc(S(=O)(=O)c3ccccc3)c(NCc3cccnc3)o2)cc1,-6.33
3,COc1ccc(OC)c2[nH]c(C(=O)N3CCC(C(=O)O)CC3)cc12,17.2
4,CNCc1cc2ccc(C)cc2[nH]c1=O,-6.99
5,C=CCSc1nnc(Cc2c(C)[nH]c3ccccc23)o1,-0.0582
6,Cc1cccc(OCc2nnc(SCC(=O)N3CC(=O)Nc4ccccc43)o2)c1,15.2
7,CCCc1cc(=O)c2c(O)cccc2o1,13.2
8,COc1ccc(N/C=C(\C#N)S(=O)(=O)c2ccc(Cl)cc2)c(OC)c1,1.81
9,Cn1c(CO)c(-c2ccccc2)c2cc([N+](=O)[O-])ccc21,11.8
10,CC(C(=O)N(C)Cc1ccccc1)N1CCN(C/C=C/c2ccccc2)CC1 (stereo not drawn),-73.5
11,COc1cc(C(=O)NCCCN(C)C)ccc1OCC(=O)Nc1cccc(C(F)(F)F)c1,-18.9
12,Cc1ccc(-c2nnc(SCC(=O)N/N=C/c3ccc(C)s3)n2-c2ccc(C)cc2)cc1,2.54
13,O=C(NCC1COc2ccccc2O1)c1ccccc1 (stereo not drawn),4.62
14,Cc1c(Cc2ccc3c(c2)OCO3)sc(NC(=O)c2cccc3ccccc23)c1C(N)=O,13.4
15,Cc1c(NC(=O)Nc2cccc([N+](=O)[O-])c2)c(=O)n(-c2ccccc2)n1C,-9.65
16,O=C(O)CCCC(=O)N1CCc2cc(S(=O)(=O)N3CCc4ccccc43)ccc21,17
17,CC(=O)Nc1ccc(-c2csc(Nc3ccc(Cl)cn3)n2)cc1,18.7
18,CCc1ccc(/C=C2\Oc3c(ccc(O)c3CN3CCN(CCO)CC3)C2=O)cc1,9.49
19,CCCC(=O)O[C@@H]1C[C@@H](C)N(C(=O)c2ccccc2)c2ccc(C)cc21,-9.25
20,NC(=Nc1ccc(Br)cc1)c1ccccc1,12.3
21,COc1cc(C(=O)Nc2ccc3nc4n(c(=O)c3c2)CCCC4)ccc1Br,8.51
22,COc1ccccc1CNC(=O)C(NC(=O)Nc1ccccc1)C(C)C (stereo not drawn),12.7

row,SMILES,"hERG current change (%, negative = inhibition) at 1uM [%]"
1,Cc1[nH]c2ccccc2c1N=Nc1c(C)n(C)n(-c2ccccc2)c1=O,8.42
2,COCCCNC(=O)NC(=O)c1ccccc1,9.08
3,COc1ccc(CCN2Cc3c(N)cccc3C2=O)cc1OC,13.4
4,Cc1ccccc1N1C(S)=C(C#N)C(=O)NC1c1cccs1 (stereo not drawn),16.1
5,Cc1c(NS(=O)(=O)c2ccc(N(C)C3CCCCC3)c([N+](=O)[O-])c2)c(=O)n(-c2ccccc2)n1C,13.8
6,CCN(CC(=O)N1CCCC1)S(=O)(=O)c1ccc(Br)cc1,15.9
7,Cn1cnc(S(=O)(=O)N2CCN(c3cccc(C(F)(F)F)c3)CC2)c1,15.2
8,S=c1[nH]nc(-c2ccc3ccccc3n2)n1-c1ccc2c(c1)OCCO2,11.4
9,CCN1CCCC1CNCc1ccc(Cl)cc1Cl.Cl (stereo not drawn),-39.9
10,Clc1ccc(CN2CCC(c3ccccc3)CC2)cc1,-26
11,Cc1ccc(S(=O)(=O)N(C)C)cc1NC(=O)COc1ccccc1C(=O)Nc1ccccc1,-8.2
12,CCCCCNC(=O)CCc1ccccc1,7.2
13,CC(=O)c1ccc(OCCCC(=O)Nc2ccc(S(=O)(=O)N3CCOCC3)cc2)cc1,11.5
14,Cc1nc2ccc(S(=O)(=O)N(C)CC(=O)NCc3ccc(N(C)C)cc3)cc2s1,1.61
15,NC(=O)CCCn1c(C(=O)c2cc(Cl)c(N)c(Cl)c2)c2ccc(C(F)(F)F)cc2[n+]1[O-],5.14
16,COc1cc(C(CN)CC(=O)O)ccc1O.Cl (stereo not drawn),12.8
17,Cc1cc(OCc2nc(-c3cccs3)no2)cc(C)c1Cl,23.8
18,COc1cccc(OCc2cc(C(=O)NCC3CCCCC3)no2)c1,30.1
19,Cc1cccc2sc(NC(=O)C3c4ccccc4Oc4ccccc43)nc12,1.68
20,COc1cccc(-c2nnc(NC(=O)c3ccc(S(=O)(=O)N4CCOCC4)cc3)o2)c1,6.26
21,COC(=O)C1C(=O)NC(SC)=C(C#N)C1c1ccccc1 (stereo not drawn),12
